This passage reports binding signal results from publication PMC5700166.

Common to all, as to assay: protein-binding microarray (PBM)
What all share (conditions): PBM: ~300 nM protein, 6 mM HEPES pH 7.8, 80 mM KCl, 0.5 mM EDTA, 0.5 mM EGTA, 6% glycerol, 35 ng/ul poly-dIdC, 1% milk, 1 h, room temperature; Ap Aiptasia and Nv Nematostella (sea anemones) / Co Capsaspora / Aq Amphimedon (sponge) / Dm Drosophila / Hu human; RHD is the Rel homology domain; high values mean tight binding; most listed sequences are background and not binding sites; double strand, one strand shown

For one assay, the target named is T1, GST-Ap-NF-kB RHD (UniProt A0A913YAJ5).
T1 sequence: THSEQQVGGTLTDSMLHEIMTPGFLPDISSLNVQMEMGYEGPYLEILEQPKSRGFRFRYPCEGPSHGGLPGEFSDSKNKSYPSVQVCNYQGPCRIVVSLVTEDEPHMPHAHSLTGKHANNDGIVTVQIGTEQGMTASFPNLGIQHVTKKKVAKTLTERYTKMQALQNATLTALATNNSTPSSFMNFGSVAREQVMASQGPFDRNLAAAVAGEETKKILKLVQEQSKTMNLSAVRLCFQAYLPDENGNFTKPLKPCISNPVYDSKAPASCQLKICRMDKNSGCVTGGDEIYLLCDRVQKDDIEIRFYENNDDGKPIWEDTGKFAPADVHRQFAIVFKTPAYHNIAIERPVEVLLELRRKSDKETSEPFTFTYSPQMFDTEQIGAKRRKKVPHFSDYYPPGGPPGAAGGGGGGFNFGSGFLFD

A further assay addresses T2, GST-Co-NF-kB (UniProt F1ARL5).
T2 sequence: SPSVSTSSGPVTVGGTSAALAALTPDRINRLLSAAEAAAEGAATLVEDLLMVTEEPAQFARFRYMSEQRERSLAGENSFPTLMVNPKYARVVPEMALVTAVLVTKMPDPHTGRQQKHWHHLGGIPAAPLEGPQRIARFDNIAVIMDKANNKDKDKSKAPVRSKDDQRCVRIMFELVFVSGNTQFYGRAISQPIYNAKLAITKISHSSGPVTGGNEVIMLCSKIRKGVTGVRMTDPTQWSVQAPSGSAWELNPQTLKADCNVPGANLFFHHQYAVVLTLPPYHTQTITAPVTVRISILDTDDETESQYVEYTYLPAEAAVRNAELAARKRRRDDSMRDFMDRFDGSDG

A further assay has as its target T3, GST-Dm-Relish (UniProt Q94527).
T3 sequence: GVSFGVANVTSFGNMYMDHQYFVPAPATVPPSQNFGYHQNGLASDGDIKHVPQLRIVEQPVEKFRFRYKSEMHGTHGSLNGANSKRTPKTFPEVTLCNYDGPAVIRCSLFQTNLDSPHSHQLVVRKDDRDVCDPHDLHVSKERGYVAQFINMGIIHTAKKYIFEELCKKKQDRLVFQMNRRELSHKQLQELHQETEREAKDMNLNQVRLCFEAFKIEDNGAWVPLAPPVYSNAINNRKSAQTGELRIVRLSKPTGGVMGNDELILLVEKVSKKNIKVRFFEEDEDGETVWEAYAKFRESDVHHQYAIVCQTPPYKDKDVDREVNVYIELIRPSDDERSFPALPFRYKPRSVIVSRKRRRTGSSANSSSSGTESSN

This is a selection; strong and weak results do not stand in their true shares. The list includes weakly bound sequences.

“CCGATTAACATCAGGGGAAAAACTGATGTTAATCGGGTCTTGATTCGCTTGACGCTGCTG”: the binding signal with GST-Ap-NF-kB RHD turned out to be 6.41 z-score; in the assay with GST-Co-NF-kB it was 9.24 z-score; with GST-Dm-Relish it was 9.62 z-score.
Turning to “CCGATTAACATCAGGGCAGCCCCTGATGTTAATCGGGTCTTGATTCGCTTGACGCTGCTG”, the binding signal in the assay with GST-Ap-NF-kB RHD amounted to 4.41 z-score; with GST-Co-NF-kB, 1.25 z-score; with GST-Dm-Relish, 4.16 z-score.
Turning to “CCGATTAACATCAACAAACCCCCTGATGTTAATCGGGTCTTGATTCGCTTGACGCTGCTG”, the binding signal with GST-Ap-NF-kB RHD came to 6.74 z-score; with GST-Co-NF-kB, 2.52 z-score; with GST-Dm-Relish, 7.26 z-score.
In the case of “CCGATTAACATCACGGTACTTCCTGATGTTAATCGGGTCTTGATTCGCTTGACGCTGCTG”, the binding signal amounted to 2.38 z-score in the assay with GST-Ap-NF-kB RHD, 0.0894 z-score with GST-Co-NF-kB and 7.59 z-score with GST-Dm-Relish.
The matching figures for “CCGATTAACATCAAATCTTCCCCTGATGTTAATCGGGTCTTGATTCGCTTGACGCTGCTG”: 6.29 z-score, 9.84 z-score and 4.74 z-score.
Take “CCGATTAACATCAGGGGGAGATATGATGTTAATCGGGTCTTGATTCGCTTGACGCTGCTG”: the binding signal in the assay with GST-Ap-NF-kB RHD was 5.8 z-score; with GST-Co-NF-kB, 8.37 z-score; with GST-Dm-Relish it was 2.53 z-score.
“CCGATTAACATCAGGAAATTTCCTGATGTTAATCGGGTCTTGATTCGCTTGACGCTGCTG”: the binding signal in the assay with GST-Ap-NF-kB RHD is 0.375 z-score; with GST-Co-NF-kB, 0.735 z-score; with GST-Dm-Relish, 1.75 z-score.
Regarding “CCGATTAACATCAGGCACCCCCCTGATGTTAATCGGGTCTTGATTCGCTTGACGCTGCTG”, the binding signal was found to be 5.14 z-score in the assay with GST-Ap-NF-kB RHD, 2.79 z-score with GST-Co-NF-kB and 5.16 z-score with GST-Dm-Relish.
Regarding “CCGATTAACATCAAATCTTTCCCTGATGTTAATCGGGTCTTGATTCGCTTGACGCTGCTG”, the figures for the binding signal with GST-Ap-NF-kB RHD, with GST-Co-NF-kB and with GST-Dm-Relish were 3.05 z-score, 5.78 z-score and 1.24 z-score, respectively.
For “CCGATTAACATCACATGGGAAACTGATGTTAATCGGGTCTTGATTCGCTTGACGCTGCTG”, the binding signal in the assay with GST-Ap-NF-kB RHD was 1.24 z-score; with GST-Co-NF-kB it was 2.48 z-score; with GST-Dm-Relish, 0.399 z-score.
As to “CCGATTAACATCAAAACTCCCCATGATGTTAATCGGGTCTTGATTCGCTTGACGCTGCTG”, the results for the binding signal with GST-Ap-NF-kB RHD, with GST-Co-NF-kB and with GST-Dm-Relish were 7.13 z-score, 5.85 z-score and 5.96 z-score, respectively.
Turning to “CCGATTAACATCAAATTGGGAAATGATGTTAATCGGGTCTTGATTCGCTTGACGCTGCTG”, the binding signal worked out at 0.485 z-score with GST-Ap-NF-kB RHD, 1.89 z-score with GST-Co-NF-kB and 0.456 z-score in the assay with GST-Dm-Relish.
Taken in the same sequence, the figures for “CCGATTAACATCAATAAATACCCTGATGTTAATCGGGTCTTGATTCGCTTGACGCTGCTG” were 3.73 z-score, 2.51 z-score and 4.58 z-score.
As to “CCGATTAACATCAGGGAAATTAATGATGTTAATCGGGTCTTGATTCGCTTGACGCTGCTG”, the binding signal with GST-Ap-NF-kB RHD amounted to 3.37 z-score; in the assay with GST-Co-NF-kB, 4.18 z-score; with GST-Dm-Relish, 2.54 z-score.
For the sequence “CCGATTAACATCATCAGGGGGGATGATGTTAATCGGGTCTTGATTCGCTTGACGCTGCTG”, the binding signal was determined as 4.58 z-score with GST-Ap-NF-kB RHD, 6.21 z-score with GST-Co-NF-kB and 4.27 z-score with GST-Dm-Relish.
On to “CCGATTAACATCAGAAATGGGAATGATGTTAATCGGGTCTTGATTCGCTTGACGCTGCTG”, for which the binding signal in the assay with GST-Ap-NF-kB RHD came to 0.35 z-score; in the assay with GST-Co-NF-kB, 1.87 z-score; in the assay with GST-Dm-Relish, 0.586 z-score.
With “CCGATTAACATCACCTATTCCCCTGATGTTAATCGGGTCTTGATTCGCTTGACGCTGCTG”, the binding signal came out at 5.73 z-score with GST-Ap-NF-kB RHD and 2.23 z-score with GST-Dm-Relish.
Take “CCGATTAACATCAAGGGGGGGTGTGATGTTAATCGGGTCTTGATTCGCTTGACGCTGCTG”: the binding signal is 4.34 z-score in the assay with GST-Ap-NF-kB RHD, 4.12 z-score in the assay with GST-Co-NF-kB and 4.4 z-score in the assay with GST-Dm-Relish.
With “CCGATTAACATCAAAAACTCCCCTGATGTTAATCGGGTCTTGATTCGCTTGACGCTGCTG”, the binding signal in the assay with GST-Ap-NF-kB RHD came to 9.29 z-score; with GST-Co-NF-kB, 6.91 z-score; with GST-Dm-Relish it was 8.62 z-score.
In the case of “CCGATTAACATCAATTGGGAAAATGATGTTAATCGGGTCTTGATTCGCTTGACGCTGCTG”, the binding signal stood at 1.52 z-score with GST-Ap-NF-kB RHD and 0.367 z-score with GST-Dm-Relish.
Regarding “CCGATTAACATCAGGGGGAAATATGATGTTAATCGGGTCTTGATTCGCTTGACGCTGCTG”, the figures for the binding signal in the assay with GST-Ap-NF-kB RHD, with GST-Co-NF-kB and in the assay with GST-Dm-Relish were 7.3 z-score, 11.1 z-score and 4.77 z-score, respectively.
For the sequence “CCGATTAACATCAGGGGGTACAATGATGTTAATCGGGTCTTGATTCGCTTGACGCTGCTG”, the binding signal with GST-Ap-NF-kB RHD was determined as 4.98 z-score; with GST-Dm-Relish, 2.37 z-score.
Consider “CCGATTAACATCAGGGGATTTCATGATGTTAATCGGGTCTTGATTCGCTTGACGCTGCTG”, for which the binding signal worked out at 9.36 z-score in the assay with GST-Ap-NF-kB RHD and 8.36 z-score with GST-Dm-Relish.
Taken in the same sequence, the figures for “CCGATTAACATCAAGCAATCCCCTGATGTTAATCGGGTCTTGATTCGCTTGACGCTGCTG” were 6.44 z-score and 5.11 z-score.
On to “CCGATTAACATCACGTACTCCCCTGATGTTAATCGGGTCTTGATTCGCTTGACGCTGCTG”, for which the binding signal with GST-Ap-NF-kB RHD worked out at 4.07 z-score; with GST-Co-NF-kB it was 2.99 z-score; with GST-Dm-Relish, 4 z-score.
On to “CCGATTAACATCAAGAAACCCCCTGATGTTAATCGGGTCTTGATTCGCTTGACGCTGCTG”, for which the figures for the binding signal in the assay with GST-Ap-NF-kB RHD, with GST-Co-NF-kB and with GST-Dm-Relish were 9.53 z-score, 3.31 z-score and 10 z-score, respectively.
For the sequence “CCGATTAACATCAGGGGCTACCCTGATGTTAATCGGGTCTTGATTCGCTTGACGCTGCTG”, the binding signal turned out to be 4.03 z-score with GST-Ap-NF-kB RHD and 3.48 z-score with GST-Dm-Relish.
